# Over roughly 33,000 sequences, “E-score (-0.5 to 0.5)” has its median near -0.035; the highest 2% begin near 0.34. Some of the results follow.
# Biological target: T1, Mot3 (UniProt P54785)
# T1 sequence: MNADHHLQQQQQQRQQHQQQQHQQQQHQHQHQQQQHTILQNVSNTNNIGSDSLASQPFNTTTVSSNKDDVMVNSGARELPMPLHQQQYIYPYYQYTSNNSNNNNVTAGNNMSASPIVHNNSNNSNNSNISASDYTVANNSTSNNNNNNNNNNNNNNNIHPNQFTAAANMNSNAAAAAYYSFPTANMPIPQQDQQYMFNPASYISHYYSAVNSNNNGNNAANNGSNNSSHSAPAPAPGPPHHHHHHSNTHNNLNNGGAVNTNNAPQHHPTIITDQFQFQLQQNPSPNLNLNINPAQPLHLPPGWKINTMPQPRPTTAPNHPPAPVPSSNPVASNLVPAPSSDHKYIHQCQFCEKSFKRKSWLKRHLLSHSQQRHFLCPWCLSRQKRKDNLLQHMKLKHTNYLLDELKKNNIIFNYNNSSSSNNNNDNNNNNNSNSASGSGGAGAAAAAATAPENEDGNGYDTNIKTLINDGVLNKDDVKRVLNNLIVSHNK
# Assay: PBM E-score (8-mer binding enrichment) (E-score (-0.5 to 0.5)); higher = stronger / more preferred TF binding; most listed sequences are background and not binding sites
# Settings: protein concentration: 200 nM; construct: GST-full length
# In short: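 Yeast transcription factors, full-length or as DNA-binding domains, were expressed with a GST tag using PURExpress in vitro transcription/translation. At about 100-200 nM they were applied to universal all-10-mer Agilent arrays, double-stranded by primer extension on fresh or once-stripped slides. Fluorescent anti-GST detected bound protein, and masliner normalised the scans. E-scores for ungapped eight-base words, pooled with reverse complements, came from the Universal PBM Analysis Suite.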
row,Sequence,PBM E-score
1,ATGGAGGC,0.107
2,CTACGTAA,0.272
3,ATGCCTGC,0.407
4,AAGTTCGA,0.0884
5,AGTCAACT,-0.198
6,CTAGTGCA,-0.0833
7,CTGTACGC,0.0458
8,GCCGAAAA,-0.0443
9,TGTGCCAA,0.042
10,GCCAAACA,-0.156
11,GCCGCACC,-0.122
12,CCTGACAG,0.00724
13,CCAAGCTC,-0.134
14,CACAATAA,-0.0556
15,CAGTATTC,-0.0628
16,CAATCGGC,-0.236
17,ACAAATTC,-0.00971
18,AGGGCTCA,-0.0909
19,ACAGTACT,0.0809
20,CTCCCGTC,-0.0798
21,AATCGGGA,-0.0982
22,CTATCGAC,0.0438
23,GCAAAGCA,0.0102
24,GCTCGGCC,-0.336
25,CTCGAACA,0.0352

row,Sequence,PBM E-score
1,CAATTGAC,0.0557
2,AGTTCTAC,0.106
3,ACCGACCG,-0.193
4,CCGTAGCC,-0.115
5,ACTTACTG,-0.0769
6,CCATTGCA,0.0255
7,ATTTGGCA,0.0539
8,GAGACTCA,-0.251
9,CCACCGCC,-0.172
10,GCCTGTTA,0.35
11,AGATGAAG,-0.143
12,GGCAACCA,0.162
13,ATTTCTTC,-0.0467
14,AGGGGCTG,-0.126
15,ACTCATGG,-0.0553
16,GCAAATCC,-0.0381
17,AGCATCCA,-0.282
18,ATGGTTAG,0.084
19,CTCCACAC,-0.075
20,CTATCCTA,0.113
21,CGGTAATC,-0.149
22,GCCGCCAC,-0.318
23,AACCGGAG,-0.148
24,CTGCAAAG,-0.0192
25,GGGGAGCA,-0.194

row,Sequence,PBM E-score
1,CTGCCCAG,-0.273
2,CCAGTTAG,-0.105
3,CTGCTTAA,-0.0304
4,GGCTAGAC,-0.167
5,CGGCAACG,-0.0123
6,CTGAAGTA,-0.0784
7,ACAACGTG,0.114
8,CAGCTAAG,-0.268
9,GCAGAGGA,-0.193
10,ACAGTGGC,-0.105
11,GGGCTGGA,-0.274
12,CGTTCAAG,-0.00663
13,TCCCATAA,-0.133
14,AACACAGT,0.189
15,CAGTAACG,0.0227
16,TACCTCGA,-0.151
17,AGGTGCTC,-0.0148
18,ACAGTTGC,0.0235
19,ATTTACCA,0.129
20,CCGCTTCC,-0.263
21,CCACTTAA,0.0289
22,AGCCCCAC,-0.334
23,AAACTCGC,-0.0638
24,AAGAGATC,-0.285
25,CATCTACG,0.0929

row,Sequence,PBM E-score
1,CGGAGCTA,-0.11
2,AGGTGGCA,-0.15
3,TATGCCAA,-0.023
4,CCGGTGAA,-0.171
5,AGTGGAGC,0.0294
6,ATAAATCA,0.126
7,GCATTAGA,-0.0607
8,CCCTGCAC,-0.0117
9,GCGCCGAC,-0.0194
10,AACTTGAC,0.143
11,CTACGGAA,0.24
12,GATACCGA,-0.101
13,GAGAGTAC,-0.0493
14,GGATACCA,-0.254
15,AAAGCCTC,-0.219
16,AAGGTCGT,-0.0904
17,AGGGAGTC,-0.213
18,CCCAACGG,-0.114
19,AACCGCAT,-0.0444
20,ATCGCGAC,-0.319
21,AGTTCGCA,-0.202
22,CGAAGGCG,0.193
23,GTGTCATA,0.28
24,ATCTAACC,0.00779
25,AGAGGACA,-0.136

row,Sequence,PBM E-score
1,ATGACAAA,0.0395
2,CGAGCTAG,-0.0166
3,CGTTTAAC,0.269
4,ACTAAACT,0.0611
5,AATTGGCT,-0.126
6,ACCCGTTC,-0.0969
7,AAGCCACC,-0.228
8,CCTGAGAG,-0.194
9,ATAGTTAA,-0.018
10,CGCCGGTC,-0.33
11,CCGAGCCC,-0.481
12,CGAAGCGC,-0.16
13,TACTCTCA,0.0866
14,GACAGCTC,-0.162
15,GAAAGGAC,-0.118
16,GTTGAGCA,0.00541
17,GATTGTGA,-0.122
18,CGAAAGGC,0.0515
19,GCGGCAGA,-0.273
20,GACAGGCC,-0.139
21,TGGTCTAA,-0.173
22,CTACTGTA,0.171
23,CCCTACCA,0.0295
24,AAAATTGA,0.147
25,AGTTTGCC,0.289

row,Sequence,PBM E-score
1,AAATAGGA,0.135
2,AGAGGGTA,-0.167
3,AACTGCTG,-0.174
4,CGCAGCCG,-0.217
5,CCGTTCTC,-0.133
6,CGCTCAAA,-0.108
7,CACTGACG,-0.206
8,GATAATTA,0.179
9,CAGAACTA,-0.283
10,CCCAACCC,-0.0962
11,ACGCCACT,-0.132
12,TAAGCGGA,-0.212
13,CGTTAGCC,-0.189
14,ATCCAATA,0.037
15,AGCTACCG,-0.31
16,AGTGTACG,0.0928
17,TATAAACA,0.275
18,CGCTGACG,-0.191
19,TATGTGCA,0.0728
20,GTACCCTA,0.0479
21,AACGTCTT,0.0441
22,GCATCAGA,0.104
23,ACGAAACA,0.0944
24,AAATTAAA,0.185
25,ACTGGCCA,-0.156

row,Sequence,PBM E-score
1,GTCTCCGA,-0.114
2,AATCTGCC,0.0326
3,GTCTGCCA,-0.121
4,CCCCGGAG,-0.242
5,GTCACAAA,0.0523
6,AATTCTCT,-0.106
7,AAGGCGCT,0.353
8,CGCTGCAA,-0.00707
9,CAGTTTGA,-0.133
10,ACACCTGT,0.193
11,GCCGCTCC,-0.323
12,CCTCAATC,-0.0484
13,ACATAATA,0.294
14,GTGGGTGA,-0.227
15,GAAACCGA,-0.249
16,ACTGATGA,-0.00185
17,GAATAGAC,0.00211
18,CCAAAAGG,0.0302
19,GTTGATCA,0.0347
20,AGCGTGTA,0.406
21,ACAGTGTG,0.0607
22,AATCTAGG,0.111
23,CTGATCAA,-0.217
24,CATCGGAG,-0.0997
25,CCAGCAGA,-0.212

row,Sequence,PBM E-score
1,CTGCAAGC,-0.113
2,AATTCAGA,-0.0646
3,CGACAAAC,-0.164
4,CAGATCTG,-0.0505
5,AATTAAGT,0.143
6,GGCACGAA,0.271
7,ACTGGAGC,-0.149
8,CGTCGTAC,0.0607
9,CAAAAGCG,-0.0671
10,ACAAAACT,0.135
11,GGAATTCA,0.0511
12,CAATGCTG,0.0016
13,GGAGTACA,0.0176
14,CTTGGCAA,-0.145
15,CACGGGGG,-0.0235
16,TGACCTCA,-0.244
17,CGAAAGCG,-0.168
18,AGTTGGTA,0.0935
19,GCGACCCC,0.00965
20,ACTTGGCG,0.00484
21,AACTCAAG,-0.0609
22,ACCAGAGC,-0.166
23,AAGAATAG,-0.00364
24,AATGGAAC,-0.00324
25,ATCTCATG,0.118

row,Sequence,PBM E-score
1,CCTTGTCG,0.0061
2,GGGACATA,-0.153
3,AGGGCTCC,-0.248
4,AAACTTCG,0.0118
5,AACAGACG,0.039
6,GCAAAGAC,-0.122
7,ACAATAGT,0.109
8,AAGAATAA,0.116
9,ACATCGGC,0.0326
10,GCATTCAC,0.0735
11,AAGGAGCT,0.0272
12,CTACATGC,0.355
13,GTCGTATA,0.0301
14,AATGCCAC,-0.227
15,ATCTGGCA,0.0111
16,CCAGACGA,-0.133
17,ACGGCAAG,-0.116
18,ACTTGGAA,0.0328
19,CTACTCAA,0.219

# Reference: the supplement of paper PMC3334620
